# Hit rate of the full screen: of about 360,000 compounds, about 6,000 (1.7%) were called active. Inconclusive results, whose numbers are uncertain, are shown with a selection of clear calls. Calls follow the shape of the dose curve; as a rule, active = well fitted cell-killing curve with a large enough effect; inconclusive = small, poorly fitted or top-dose-only effect, or effect the other way; inactive = flat fitted curve, though single readings scatter. No potency is given beside an inconclusive call; the fits are too rough.
# Test: qHTS for induction of synthetic lethality in tumor cells producing 2HG: qHTS for the HT-1080-NT fibrosarcoma cell line;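 also: NT is the 2HG producing partner of a matched IDH1 knockdown line; nearly all actives have a fitted effect of over 55% in size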;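 as to activity, negative = less viability: 0% = DMSO-treated cells and -100% = media-only wells without cells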
# Conditions: HT-1080-NT fibrosarcoma viability, CellTiter-Glo ATP luminescence, 48 h; activity, negative = less viability: at 46.1 µM (top of the series) unless noted
# How it was run: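 A 48-hour cytotoxicity screen used HT-1080-NT cells plated 2 hours before compound delivery. ATP-based CellTiter-Glo luminescence measured viability, normalized to DMSO and no-cell controls.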
# Potency is read from the fitted curve at half-maximal effect; tags tell the direction and shape of the fitted curve.
Compound,"activity, negative = less viability",Potency
COc1cc(C(=S)N2CCOCC2)cc(OC)c1OC(=O)c1ccc(F)cc1,inactive: -4.15%,–
CC(Oc1ccc(Br)cc1)C(=O)Nc1ccncc1 (centres undefined),–,"inconclusive [cytotoxic, single point]"
CC1CC(Nc2ccccc2)c2ccccc2N1C(=O)c1cccnc1 (centres undefined),–,"inconclusive [cytotoxic, single point]"
NC(Cc1ccc(F)cc1)c1csc(Nc2cc(Oc3ccccc3)ncn2)n1 (centres undefined),–,"inconclusive [cytotoxic, single point]"
Nc1[nH]c(=O)nc2snnc12,inactive: -29.7%,–
CN1/C(=C/c2cccc[n+]2CCO)Sc2ccccc21,inactive: -1.61%,–
Cc1ccsc1/C=N/NC(=O)c1ccccn1,inactive: -18.2%,–
COc1ccc(Nc2nc(-c3cccc([N+](=O)[O-])c3)nc3ccccc23)cc1,–,"inconclusive [cytotoxic, single point]"
CCN(CC)S(=O)(=O)c1ccc(C(=O)NCC(=O)NCCCc2ccccc2)cc1,inactive: 1.5%,–
COC(=O)C(=NNc1c(C)n(C)n(-c2ccccc2)c1=O)C(=O)OC,–,"inconclusive [rising, single point]"
COc1ccc(-n2c(C)nc3c(cnn3-c3ccccc3)c2=O)cc1,–,"inconclusive [cytotoxic, single point]"
O=C(/C=C/Nc1ccc(S(=O)(=O)Nc2cnc3ccccc3n2)cc1)c1ccccc1,–,"inconclusive [rising, single point]"
COc1cccc(-c2cc(NC=O)c3ncc(-c4cccc(C(=O)N(C)C)c4)n3c2)c1,–,"inconclusive [cytotoxic, single point]"
Cc1cccc(Nc2nc(-c3ccccn3)cs2)n1,–,active: 0.316 µM
COc1cc(C(=O)Nc2cc3c(cc2N2CCCCC2)n(C)c(=O)n3C)cc(OC)c1OC,inconclusive: -30.1% [cytotoxic],–
CSc1nc(N)n(-c2cc(C(F)(F)F)ccn2)n1,–,"inconclusive [cytotoxic, single point]"
COc1cccc(C2c3c(-c4cc(Cl)c(C)cc4O)n[nH]c3C(=O)N2Cc2cccnc2)c1 (centres undefined),–,"inconclusive [cytotoxic, single point]"
O=C(CNC(=O)c1ccc(F)cc1)N/N=C/c1cc(Br)ccc1OC(=O)/C=C/c1ccco1,inconclusive: -36% [cytotoxic],–
O=C(/C=C\Nc1ccc2c(c1)OCO2)c1ccc2c(c1)OCO2,–,"inconclusive [cytotoxic, partial curve, poor fit]"
C=CCn1c(SCC(=O)O)nc2sc(CC)cc2c1=O,inactive: 16.5%,–
Cc1nc2ccc(NS(=O)(=O)c3c(C)c(C)cc(C)c3C)cc2s1,–,"inconclusive [cytotoxic, partial curve]"
CC[n+]1c(/C=C/N(C)c2ccccc2)oc2ccc(F)cc21,–,"inconclusive [cytotoxic, partial curve]"
CCN(CC)c1ccc(N2C(=NC(=O)C3CC3)SC3CS(=O)(=O)CC32)cc1 (centres undefined),inactive: 2.72%,–

Compound,"activity, negative = less viability",Potency
O=C(CSc1nnc(CN2CCOCC2)n1-c1ccc(Cl)cc1)Nc1cc(Cl)ccc1O,–,"inconclusive [cytotoxic, partial curve]"
CC(C)(C)NC(=S)N/N=C/c1cc(Br)c(O)c(Br)c1,–,"inconclusive [cytotoxic, single point]"
OC(Cc1ccccc1)c1ncc(-c2ccc(Cl)cc2)[nH]1 (centres undefined),–,"inconclusive [cytotoxic, single point]"
CN(C)c1ccc(C(=S)NC2CCCCC2)cc1,inactive: -3.26%,–
O=C(C(Br)=Cc1ccccc1)c1ccccc1,–,active: 5.8 µM
CCCCN(CC)CCNC(=O)c1cc2c(=O)n(C)c3ccccc3c2n1C,–,"inconclusive [cytotoxic, single point]"
COCCN1CCN(C(=O)c2ccc3nc(Cc4ccc(OC)c(OC)c4)oc3c2)CC1,–,active: 7.31 µM
CC(=O)Nc1cccc(-c2ccnc3c2CC(C(=O)NCCc2ccccc2)O3)c1 (centres undefined),–,"inconclusive [cytotoxic, full curve]"
COc1ccc(C(=O)OCCc2sc[n+](CC(=O)c3ccccc3)c2C)cc1,inactive: -21.1%,–
CC(C)(C)c1ccc(OCCCNC2CCCC2)cc1,–,"inconclusive [cytotoxic, partial curve]"
Cc1ccc(CCNC(=O)Cn2ccc3cc(S(=O)(=O)N4CCCC4)ccc32)cc1,inactive: -16.7%,–
Cc1occc1C(=O)N/N=C/c1c(O)ccc2ccccc12,–,"inconclusive [cytotoxic, partial curve]"
CCOc1ncccc1C(=O)NCCc1ccc(OC)cc1,–,"inconclusive [cytotoxic, partial curve]"
CCn1c(SCC(=O)Nc2nc(-c3ccccc3)cs2)nnc1-c1ccccc1O,–,"inconclusive [cytotoxic, single point]"
Cc1ccc(NN2C(=O)C=C(c3ccccc3)C2=O)cc1,–,active: 23.1 µM
COc1ccc(-c2oc3cc(OC)c(O)c(OC)c3c(=O)c2OC)cc1O,–,"inconclusive [cytotoxic, partial curve]"
Cc1ccc(N2CCN(S(=O)(=O)c3nnc(NC(=O)c4ccccc4)s3)CC2)cc1,inactive: 12.3%,–
Cc1ccc(NC(=O)CN2CCC(Cc3ccccc3)CC2)cc1S(=O)(=O)N(C)C,–,"inconclusive [cytotoxic, single point]"
C[C@@H]1O[C@@H](O[C@H]2[C@H](Oc3cc(O)c4c(c3)OC(c3ccc(O)cc3)CC4=O)O[C@H](CO)[C@@H](O)[C@@H]2O)[C@H](O)[C@H](O)[C@H]1O (some centres undefined),–,"inconclusive [rising, single point]"
COc1ccc2c(c1)OC[C@H]1[C@H]2N2C(=O)c3ccc(C)cc3NC(=O)[C@@]2(C)[C@H]1c1ccccc1,inactive: -24.7%,–
CCCNC(=O)COC(=O)/C(C#N)=C/c1cc(C)n(CCC)c1C,inactive: 24%,–
CCOC(=O)c1sc2nc(CSc3ccccc3)nc(NCCN(C)C)c2c1C,–,active: 18.4 µM
CC1(C)SC(=S)N(/N=C/c2ccccc2)C1N(O)C(=O)Nc1ccc([N+](=O)[O-])cc1 (centres undefined),–,"inconclusive [cytotoxic, single point]"

Compound,"activity, negative = less viability",Potency
CCOC(=O)C1CCN(C(=O)CN(c2ccc3c(c2)OCCO3)S(C)(=O)=O)CC1,inactive: 3.72%,–
CC1Cc2nc(SCC(=O)NCc3ccccc3)n(Cc3ccccc3)c(=O)c2S1 (centres undefined),inactive: 0.583%,–
c1ccc(-c2nc3ccccn3c2NC2CCCC2)nc1,–,"inconclusive [cytotoxic, single point]"
O=C(Nc1ccc(S(=O)(=O)N2CCCCC2)cc1)c1ccc(CN2CCc3ccccc3C2)cc1,–,"inconclusive [cytotoxic, full curve]"
Cc1ccc(S(=O)(=O)N(C)C)cc1NC(=O)COC(=O)c1cccs1,inactive: 10%,–
CCCS(=O)(=O)NC(=O)C1(C)CCCN(C(=O)c2nc3ccccc3s2)C1 (centres undefined),inactive: -4.94%,–
O=C(COc1ccc([N+](=O)[O-])cc1)Nc1nc(-c2ccccn2)cs1,–,"inconclusive [cytotoxic, full curve]"
CCN1CCCC1CNC(=O)c1ccc(Sc2ccc(F)cc2)c([N+](=O)[O-])c1 (centres undefined),–,"inconclusive [cytotoxic, single point]"
COc1ccc(NC(=O)C2Cc3c(-c4ccc(Cl)cc4)ccnc3O2)cc1 (centres undefined),–,"inconclusive [cytotoxic, single point]"
CCCc1ccc(C(O)c2ncc(-c3cccc(F)c3)[nH]2)cc1 (centres undefined),–,"inconclusive [cytotoxic, single point]"
COc1cccc(/C=N/NC(=O)c2ccncc2)c1OC(=O)c1ccc(Br)cc1,–,"inconclusive [cytotoxic, single point]"
COc1ccc(-c2ccc(C)cc2)cc1[C@H]1[C@@H]2C=CCC[C@@]2(C)C(=O)N1Cc1ccccc1,–,"inconclusive [cytotoxic, single point]"
NC(=O)c1cccc(-c2ccnc3c2CC(C(=O)Nc2cccc(C(F)(F)F)c2)O3)c1 (centres undefined),–,"inconclusive [cytotoxic, single point]"
CCOC(=O)C1(Cc2cccc(Cl)c2)CCCN(CCO)C1 (centres undefined),inactive: -7.18%,–
CCCc1ccc(OCc2nc(-c3ccc(NC(=O)c4ccco4)cc3)no2)cc1,–,"inconclusive [cytotoxic, single point]"
Cc1ccc(C(CCNC(C)c2cccs2)c2ccco2)cc1 (centres undefined),–,"inconclusive [cytotoxic, single point]"
Cc1ccc(-c2cc3cccc[n+]3cc2-c2ccc(C)cc2)cc1,–,"inconclusive [cytotoxic, full curve]"
Cc1cccnc1C(NC(=O)C1CCN(Cc2ccc(Cl)c(Cl)c2)CC1)c1ccc(Cl)cc1 (centres undefined),–,"inconclusive [cytotoxic, single point]"
CN(Cc1ccccc1)CC(O)COc1ccc(CNCCc2ccncc2)cc1 (centres undefined),–,"inconclusive [cytotoxic, single point]"
O=C(O)CCC(=O)NNC(=O)COc1ccc2ccccc2c1Br,inactive: 1.5%,–
CCCCC(O)(c1ccc(F)cc1)C(CN1CCOCC1)c1ccc(Cl)cc1 (centres undefined),–,"inconclusive [cytotoxic, single point]"
Cc1ccc(-n2[nH]c(C)c(/C=N/c3cccc(C)n3)c2=O)cc1,–,"inconclusive [cytotoxic, partial curve, poor fit]"
COc1ccc2[nH]c3c(=O)n4c(nc3c2c1)SCCC4,–,"inconclusive [cytotoxic, single point]"

# — PubChem BioAssay AID686970 (National Center for Advancing Translational Sciences (NCATS), 2013)
